Data published in a collection of fitness landscapes (doi:10.1126/science.1257360).
This is one part of the list.

B1: PhoQ; a variant is named by its letters at X, in order, P23837 (parent)
chain: MKKLLRLFFPLSLRVRFLLATAAVVLVLSLAYGMVALIGYSVSFDKTTFRLLRGESNLFYTLAKWENNKLHVELPENIDKQSPTMTLIYDENGQLLWAQRDVPWLMKMIQPDWLKSNGFHEIEADVNDTSLLLSGDHSIQQQLQEVREDDDDAEMTHSVAVNVYPATSRMPKLTIVVVDTIPVELKSSYMVWSWFIYVLSANLLLVIPLLWVAAWWSLRPIEALAKEVRELEEHNRELLNPATTRELTSLVRNLNRLLKSERERYDKYRTTLTDLTHSLKTPLXXLQXXLRSLRSEKMSVSDAEPVMLEQISRISQQIGYYLHRASMRGGTLLSRELHPVAPLLDNLTSALNKVYQRKGVNISLDISPEISFVGEQNDFVEVMGNVLDNACKYCLEFVEISARQTDEHLYIVVEDDGPGIPLSKREVIFDRGQRVDTLRPGQGVGLAVAREITEQYEGKIVAGESMLGGARMEVIFGRQHSAPKDE

Variants of: B1
Test: enrichment ratio after two sorts for PhoP signalling (ratio (wild type AVST 3.29)); higher = more functional
Settings: with PhoP (E. coli)

| Variant | enrichment ratio |
| --- | --- |
| AQED | ≤ 0.25 |
| TLWK | ≤ 0.25 |
| LYCF | ≤ 0.25 |
| SQVH | 5.84 |
| QLMF | ≤ 0.25 |
| VAYM | 1.24 |
| DIDY | ≤ 0.25 |
| LILK | ≤ 0.25 |
| SMVD | ≤ 0.25 |
| PSQQ | ≤ 0.25 |
| MMNH | ≤ 0.25 |
| FHWT | ≤ 0.25 |
| NSAL | ≤ 0.25 |
| VLSA | ≤ 0.25 |
| SSTL | 14 |
| TMGR | ≤ 0.25 |
| MLFW | 1.07 |
| PRGL | ≤ 0.25 |
| FGNE | ≤ 0.25 |
| KDSK | ≤ 0.25 |
| HSWW | ≤ 0.25 |
| ALGR | ≤ 0.25 |
| MDKH | ≤ 0.25 |
| LMMR | ≤ 0.25 |

| Variant | enrichment ratio |
| --- | --- |
| PKPG | ≤ 0.25 |
| YGPV | ≤ 0.25 |
| NGMK | ≤ 0.25 |
| LHGD | ≤ 0.25 |
| PEGN | ≤ 0.25 |
| YMEC | ≤ 0.25 |
| GALP | ≤ 0.25 |
| MRRF | ≤ 0.25 |
| PPQN | ≤ 0.25 |
| ETQF | ≤ 0.25 |
| KYPL | ≤ 0.25 |
| HKWR | ≤ 0.25 |
| HRGN | ≤ 0.25 |
| TLQP | ≤ 0.25 |
| PWPM | ≤ 0.25 |
| KPAR | ≤ 0.25 |
| VAAA | ≤ 0.25 |
| FLTT | ≤ 0.25 |
| GAVI | ≤ 0.25 |
| IMHP | ≤ 0.25 |
| LKNP | ≤ 0.25 |
| KLTT | ≤ 0.25 |
| LKWK | ≤ 0.25 |
| DVMI | ≤ 0.25 |

| Variant | enrichment ratio |
| --- | --- |
| KIFQ | ≤ 0.25 |
| VDMS | ≤ 0.25 |
| YAHA | ≤ 0.25 |
| EQED | ≤ 0.25 |
| PHVP | ≤ 0.25 |
| GFQK | ≤ 0.25 |
| GAFT | ≤ 0.25 |
| WCPH | ≤ 0.25 |
| NCPD | ≤ 0.25 |
| MFIS | ≤ 0.25 |
| MCLA | 3.12 |
| TMRY | ≤ 0.25 |
| GSGD | ≤ 0.25 |
| IMRV | ≤ 0.25 |
| GHYY | ≤ 0.25 |
| FAHA | ≤ 0.25 |
| YCTL | 0.295 |
| AITD | ≤ 0.25 |
| VQTR | ≤ 0.25 |
| MYSA | ≤ 0.25 |
| NRGT | ≤ 0.25 |
| QCQG | ≤ 0.25 |
| TLSQ | 9.34 |
| FYEH | ≤ 0.25 |

| Variant | enrichment ratio |
| --- | --- |
| IGAH | ≤ 0.25 |
| IMCM | ≤ 0.25 |
| ANRG | ≤ 0.25 |
| HRGR | ≤ 0.25 |
| YITI | ≤ 0.25 |
| HSSR | ≤ 0.25 |
| HTWN | ≤ 0.25 |
| WQFN | ≤ 0.25 |
| EPYY | ≤ 0.25 |
| TETH | 10.3 |
| NNSW | ≤ 0.25 |
| HGFK | ≤ 0.25 |
| DDSE | 1.96 |
| SVGY | 4.82 |
| KVGT | ≤ 0.25 |
| QFNL | ≤ 0.25 |
| NSED | ≤ 0.25 |
| MWFI | ≤ 0.25 |
| MGND | ≤ 0.25 |
| WEGV | ≤ 0.25 |
| ISLK | ≤ 0.25 |
| GDIQ | 17.5 |
| LFEW | ≤ 0.25 |
| NYIR | ≤ 0.25 |

| Variant | enrichment ratio |
| --- | --- |
| EIEP | ≤ 0.25 |
| VCHN | ≤ 0.25 |
| FCGS | ≤ 0.25 |
| HLYF | ≤ 0.25 |
| GVCI | ≤ 0.25 |
| WVYK | ≤ 0.25 |
| SCPW | ≤ 0.25 |
| YLCQ | 0.342 |
| WPSC | ≤ 0.25 |
| RVGY | ≤ 0.25 |
| IECK | ≤ 0.25 |
| TYCD | ≤ 0.25 |
| GNQL | ≤ 0.25 |
| LEYG | 4.21 |
| KLSK | ≤ 0.25 |
| NFGL | ≤ 0.25 |
| NNGV | ≤ 0.25 |
| IPQG | ≤ 0.25 |
| WWWP | ≤ 0.25 |
| NFSN | ≤ 0.25 |
| WPGL | ≤ 0.25 |
| AMVP | 0.854 |
| YEFH | ≤ 0.25 |
| TYDY | ≤ 0.25 |

| Variant | enrichment ratio |
| --- | --- |
| KTQK | ≤ 0.25 |
| CLFG | ≤ 0.25 |
| VWPD | ≤ 0.25 |
| PQGY | ≤ 0.25 |
| ATDL | 1.31 |
| LVWA | ≤ 0.25 |
| RQIH | ≤ 0.25 |
| RLIK | ≤ 0.25 |
| WYSG | ≤ 0.25 |
| TDIE | ≤ 0.25 |
| KRGT | ≤ 0.25 |
| GRSF | ≤ 0.25 |
| HMLN | ≤ 0.25 |
| KYDP | ≤ 0.25 |
| MFCY | ≤ 0.25 |
| IMDF | ≤ 0.25 |
| QMVT | ≤ 0.25 |
| KCNV | ≤ 0.25 |
| QAIY | ≤ 0.25 |
| WAWL | ≤ 0.25 |
| DHHS | ≤ 0.25 |
| LTEM | ≤ 0.25 |
| WFWC | ≤ 0.25 |
| ECGW | ≤ 0.25 |

| Variant | enrichment ratio |
| --- | --- |
| RTPS | 0.958 |
| LHSK | ≤ 0.25 |
| WQHW | ≤ 0.25 |
| AGYV | ≤ 0.25 |
| YHIL | ≤ 0.25 |
| DPCM | ≤ 0.25 |
| HTWH | ≤ 0.25 |
| RLMN | ≤ 0.25 |
| HMAR | ≤ 0.25 |
| SKGE | ≤ 0.25 |
| TFQP | ≤ 0.25 |
| PQIM | ≤ 0.25 |
| ISRR | ≤ 0.25 |
| LLVE | ≤ 0.25 |
| HCTW | ≤ 0.25 |
| QFHP | ≤ 0.25 |
| VAKN | ≤ 0.25 |
| VFAH | ≤ 0.25 |
| HSKW | ≤ 0.25 |
| RMTV | ≤ 0.25 |
| PVVQ | ≤ 0.25 |
| YQMI | ≤ 0.25 |
| MGFI | 7.16 |
| YIFC | ≤ 0.25 |

| Variant | enrichment ratio |
| --- | --- |
| NRRC | ≤ 0.25 |
| FHCE | ≤ 0.25 |
| KMHI | 3.39 |
| VMSN | ≤ 0.25 |
| LTFP | ≤ 0.25 |
| QRKT | ≤ 0.25 |
| PDLM | ≤ 0.25 |
| LDMF | ≤ 0.25 |
| YLHR | ≤ 0.25 |
| LHRW | ≤ 0.25 |
| KYHK | ≤ 0.25 |
| PGKD | ≤ 0.25 |
| VIGM | ≤ 0.25 |
| NDFG | ≤ 0.25 |
| EVPW | ≤ 0.25 |
| VRGR | ≤ 0.25 |
| YSQF | ≤ 0.25 |
| EATN | ≤ 0.25 |
| YWVK | ≤ 0.25 |
| QNSF | ≤ 0.25 |
| SWQG | ≤ 0.25 |
| QSVT | ≤ 0.25 |
| WRFN | ≤ 0.25 |
| THVM | 9.68 |

| Variant | enrichment ratio |
| --- | --- |
| INQM | ≤ 0.25 |
| SVIQ | 0.663 |
| IRKP | ≤ 0.25 |
| SHPH | ≤ 0.25 |
| LRTR | ≤ 0.25 |
| MWAL | ≤ 0.25 |
| RIDC | ≤ 0.25 |
| RTLE | ≤ 0.25 |
| RRAQ | ≤ 0.25 |
| WSWD | ≤ 0.25 |
| AGES | ≤ 0.25 |
| EATH | ≤ 0.25 |
| YASE | ≤ 0.25 |
| LKIW | ≤ 0.25 |
| GTQP | ≤ 0.25 |
| MDRI | ≤ 0.25 |
| YHYT | ≤ 0.25 |
| TKQW | ≤ 0.25 |
| LCGV | ≤ 0.25 |
| MYIS | ≤ 0.25 |
| IKCF | ≤ 0.25 |
| LKQG | ≤ 0.25 |
| TCHW | ≤ 0.25 |
| LHDW | 1.04 |

| Variant | enrichment ratio |
| --- | --- |
| DILA | ≤ 0.25 |
| YDEM | ≤ 0.25 |
| SPHF | ≤ 0.25 |
| APEP | ≤ 0.25 |
| MTCW | ≤ 0.25 |
| NNVM | ≤ 0.25 |
| DKVW | ≤ 0.25 |
| LALP | ≤ 0.25 |
| HMMF | ≤ 0.25 |
| RSKC | ≤ 0.25 |
| AICR | 11.2 |
| GGQF | ≤ 0.25 |
| ACCQ | 8.96 |
| IDCL | ≤ 0.25 |
| KQHN | ≤ 0.25 |
| FGIR | ≤ 0.25 |
| VPDR | ≤ 0.25 |
| VIFE | ≤ 0.25 |
| AWSM | ≤ 0.25 |
| SLDR | ≤ 0.25 |
| AHYH | ≤ 0.25 |
| PGSD | ≤ 0.25 |
| PTTK | ≤ 0.25 |
| ELDG | ≤ 0.25 |

| Variant | enrichment ratio |
| --- | --- |
| HLWY | ≤ 0.25 |
| PILH | ≤ 0.25 |
| VGGL | ≤ 0.25 |
| WDIG | ≤ 0.25 |
| LPPN | ≤ 0.25 |
| NERY | ≤ 0.25 |
| KQMH | ≤ 0.25 |
| IKAN | ≤ 0.25 |
| HEMK | ≤ 0.25 |
| YKAP | ≤ 0.25 |
| GEFC | ≤ 0.25 |
| YTCH | 0.285 |
| PWEL | ≤ 0.25 |
| QKGF | ≤ 0.25 |
| ADRR | ≤ 0.25 |
| WMWT | ≤ 0.25 |
| YCCA | ≤ 0.25 |
| YMHL | ≤ 0.25 |
| EDNS | ≤ 0.25 |
| QCFA | ≤ 0.25 |
| ETSR | ≤ 0.25 |
| QQMI | ≤ 0.25 |
| DVAG | ≤ 0.25 |
| TVEA | ≤ 0.25 |

| Variant | enrichment ratio |
| --- | --- |
| WLNF | ≤ 0.25 |
| DCSI | ≤ 0.25 |
| TQCK | 1.24 |
| QSVP | ≤ 0.25 |
| VEFF | ≤ 0.25 |
| WQKM | ≤ 0.25 |
| WTIV | ≤ 0.25 |
| RSVG | ≤ 0.25 |
| NMNC | ≤ 0.25 |
| KDHN | ≤ 0.25 |
| ARKW | ≤ 0.25 |
| MKSD | ≤ 0.25 |
| HEWY | ≤ 0.25 |
| VCFW | ≤ 0.25 |
| HMAC | ≤ 0.25 |
| EVWG | ≤ 0.25 |
| MFDA | ≤ 0.25 |
| TDEF | ≤ 0.25 |
| FLLA | ≤ 0.25 |
| MREP | ≤ 0.25 |
| WYWH | ≤ 0.25 |
| NEFF | ≤ 0.25 |
| VMNS | ≤ 0.25 |
| HNRV | ≤ 0.25 |

| Variant | enrichment ratio |
| --- | --- |
| HNVS | ≤ 0.25 |
| CSLI | 0.428 |
| PMGT | ≤ 0.25 |
| WNFH | ≤ 0.25 |
| YHSR | ≤ 0.25 |
| AQIV | 9.59 |
| MITY | ≤ 0.25 |
| SFIC | 1.82 |
| AAYH | ≤ 0.25 |
| KDFK | ≤ 0.25 |
| GQRS | ≤ 0.25 |
| LPLD | ≤ 0.25 |
| VKVV | ≤ 0.25 |
| WRYQ | ≤ 0.25 |
| RGVK | ≤ 0.25 |
| WEWY | ≤ 0.25 |
| FATM | ≤ 0.25 |
| QDSW | ≤ 0.25 |
